Test results from PMC6919601, “Identification of Plasmodium dipeptidyl aminopeptidase allosteric inhibitors by high throughput screening” (PLoS ONE, 2019).
Out of some 110,000 compounds screened, about 230 (0.21%) showed an effect of 50% or more. The list shows a part of the results.

Target: DPAP1 (Plasmodium falciparum, UniProt Q8IIJ9)
Test: primary screen, percent inhibition; read by cleavage of a fluorogenic dipeptide substrate; higher = more effect of the substance
Parameters: species or system P. falciparum D10 trophozoite lysates; single well
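Also: 30 min substrate incubation versus DMSO and 10 µM JCP410 controls.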

Sequence of DPAP1 (Q8IIJ9 whole entry, looked up): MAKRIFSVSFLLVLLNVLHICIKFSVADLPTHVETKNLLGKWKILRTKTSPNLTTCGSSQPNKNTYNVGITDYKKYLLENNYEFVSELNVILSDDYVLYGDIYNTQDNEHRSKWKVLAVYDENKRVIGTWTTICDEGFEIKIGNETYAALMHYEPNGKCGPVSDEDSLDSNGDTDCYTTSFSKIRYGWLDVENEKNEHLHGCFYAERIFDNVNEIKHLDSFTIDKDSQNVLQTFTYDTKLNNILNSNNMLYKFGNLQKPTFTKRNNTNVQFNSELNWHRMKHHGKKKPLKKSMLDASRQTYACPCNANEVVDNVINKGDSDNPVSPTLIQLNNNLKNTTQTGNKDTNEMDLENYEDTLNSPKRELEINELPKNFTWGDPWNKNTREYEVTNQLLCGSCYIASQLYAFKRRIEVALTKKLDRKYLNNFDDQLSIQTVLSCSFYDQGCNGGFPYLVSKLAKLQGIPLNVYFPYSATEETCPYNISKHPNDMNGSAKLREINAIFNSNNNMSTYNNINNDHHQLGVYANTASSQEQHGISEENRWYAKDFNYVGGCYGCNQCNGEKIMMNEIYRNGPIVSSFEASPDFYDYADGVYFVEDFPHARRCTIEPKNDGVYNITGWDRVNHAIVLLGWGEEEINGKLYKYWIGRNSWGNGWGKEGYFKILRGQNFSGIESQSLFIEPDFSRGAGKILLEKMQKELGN

SMILES	% Inhibition @ 10 uM [%]
COc1cccc(Cn2c(-c3cncs3)nc3ccccc32)c1	4.93
Cc1ccc(CN2CCN(Cc3c[nH]c4ccccc34)CC2)cc1	-7.05
Cc1nc2ccn(Cc3ccccc3)c(=O)c2cc1C(=O)NCCCc1ccco1	0.234
O=C(CC12CC3CC(CC(C3)C1)C2)OCC(O)CN1CCC(CO)CC1 (stereo not shown)	2.65
Cc1cc(C)nc(NC(=N)N2CCN(C)CC2)n1	2.03
O=C(Cn1nc(C(F)(F)F)cc1C1CC1)Nc1cccc(Br)c1	0.389
COC(=O)c1ccc(-c2ccc(/C=C3\C(=O)N(CCCO)C(=O)C(C#N)=C3C)o2)cc1	-1.26
O=C(Nc1ccc(NC(=O)c2cccs2)cc1)c1ccc2c(c1)OCCO2	-6.36
NC1=C(c2nc3ccccc3s2)C(=O)CN1CC1CCCO1 (stereo not shown)	-2.99
Nc1ncc(Br)cc1S(=O)(=O)N1CCN(Cc2ccccc2)CC1	-1.06
CC(=O)Nc1ccc(NC(=O)CC(C)C)cc1	0.324
CCOC(=O)N1CCC(/N=c2/c(N3CC4CC(C3)c3cccc(=O)n3C4)c(O)c2=O)CC1 (stereo not shown)	3.34
COc1ccccc1CNc1nc2ccccc2c2nc(-c3ccccc3)nn12	-0.692
O=C(N/C(=C/c1ccc(Cl)cc1)c1nc2ccccc2[nH]1)c1ccco1	3.61
Cc1ccc(NC(=O)CSc2nc3ccccc3cc2C#N)cc1	-1.38
CC1CCCC(C)N1C(=O)c1cc(-c2ccc(Cl)c(Cl)c2)on1 (stereo not shown)	0.0221
CCc1ccc(C2CC(c3cccc(OC)c3)n3nnnc3N2)cc1 (stereo not shown)	1.73
O=C(O)C1CCCN1S(=O)(=O)c1ccccc1 (stereo not shown)	-0.712
O=C(NCC(c1ccccc1)C1CCCCC1)c1cccs1 (stereo not shown)	-5.72
Cc1ccc(-c2coc3cc4oc(=O)ccc4cc23)cc1	-1.15
CC(C)NC(=O)c1cnn(-c2ccc(F)cc2)c1-n1cccc1	0.942
Cc1nc2c(c(-c3ccccc3)c1C(=O)O)C(=O)CC(C)(C)C2	2.16
CN1c2ccccc2-c2ccccc2C12C=Cc1c(ccc3ccccc13)O2 (stereo not shown)	1.13
O=S(=O)(c1ccc(-c2cs/c(=N\c3ccccc3)n2CC2CCCO2)cc1)N1CCCC1 (stereo not shown)	2.01
CN1CCC(O)(C#N)C2CCCCC21 (stereo not shown)	-5.47
CCOC(=O)c1[nH]c2ccccc2c1NC(=O)CC(C)C	-1.29

SMILES	% Inhibition @ 10 uM [%]
Cc1noc2ncnc(N3CCCC(C(=O)NCc4ccc5c(c4)OCO5)C3)c12 (stereo not shown)	-4.51
CN(Cc1ccccc1)c1nnc(NC(=O)NC23CC4CC(CC(C4)C2)C3)s1	-6.58
CC(Cc1ccccc1)Nc1nc2c(ncn2C)c(=N)n1C (stereo not shown)	5.29
O=C(OCc1ccco1)c1cc2cc(Br)cc(Br)c2oc1=O	-0.85
CC1=C([N+](=O)[O-])C(c2ccccc2)NC(=O)N1C (stereo not shown)	4.54
CCOc1ccc(-c2csc(/C(C#N)=C/c3ccccc3Cl)n2)cc1	2.13
Cc1ccc(C)c(N2C(=O)C3CC=CC(C)C3C2=O)c1 (stereo not shown)	-6.91
COc1ccc(C(F)(F)F)cc1NC(=O)c1cccnc1	2.49
CCc1nnc(SCc2nc(-c3ccc(OC)c(OC)c3)oc2C)c2cc3oc(C)cc3n12	10.1
COc1ccc(-c2cc(-c3ccc(C)cc3)nc(OC)n2)cc1	-0.856
CCCCCc1ccc(-c2ccc(-c3noc(CCC)n3)cc2)cc1	-2
COc1ccc(-c2cc3nc(C)c(CCC(=O)NCCCN4CCCC4=O)c(C)n3n2)c(OC)c1	-10.4
NS(=O)(=O)c1ccc(NC(=O)c2ccc(F)cc2)cc1	-1.77
Cc1cc(C)nc(NC(=O)c2c(-c3ccccc3)noc2C)c1	-0.0555
O=C(Nc1ccc(Cl)c(Cl)c1)Nc1ccc2c(c1)OCO2	-0.436
CCOC(=O)N1CCC(NC(=O)CCc2nc3cccnc3n2-c2ccccc2)CC1	-0.0115
Cc1nc2c([N+](=O)[O-])c(Cl)ccc2s1	-3.48
Cc1[nH]c2ccc(C(=O)NCc3ccccc3Cl)cc2c1C	-4.71
CC1=C(C(=O)Nc2ccccc2C)C(c2cccc(C)c2)C2=C(O)CCCC2=N1 (stereo not shown)	-4.12
CCC(CO)NS(=O)(=O)c1c(C)nc2sccn2c1=O (stereo not shown)	-1.97
CC(=O)Nc1sc2c(c1C(=O)Nc1ccc(Cl)cc1)CCC(C)C2 (stereo not shown)	-2.74
Cn1nc(-c2ccc(Cl)cc2)c2cc(C(=O)NCc3ccco3)sc21	-3.09
COc1ccccc1NS(=O)(=O)c1ccc(NC(C)=O)cc1	-3.95
Cc1onc(-c2ccccc2)c1C(=O)Nc1nccs1	0.408
Cc1cccc(OCCCCN2CCCC2)c1C	-6.44
CC1CCN(C(=O)C2CCN(S(=O)(=O)c3cccc4nonc34)CC2)CC1	4.07

SMILES	% Inhibition @ 10 uM [%]
Cn1cc(Br)c(C(=O)N2CCN(c3cccc(Cl)c3)CC2)n1	6.1
COc1ccc(C(C)NC(=O)c2ccc(F)cc2)cc1OC (stereo not shown)	1.83
CCOC(=O)c1conc1-c1cccnc1	0.219
CCC(C)NC(=O)C1CC(c2ccccc2OC)=NO1 (stereo not shown)	13
Cc1ccc2[nH]c(/C(C#N)=C/c3cccn3-c3ccc(S(N)(=O)=O)cc3)nc2c1	-2.87
O=C(NCc1ccccc1)Nc1cccs1	-1.6
O=C(CSC1=NC(=O)C(Cc2ccccc2)C(=O)N1)Nc1ccc(Br)cn1 (stereo not shown)	11.5
COc1ccc(C(CC(=O)O)CC(=O)O)cc1	-1.68
CC(CCc1ccccc1)NC(=O)CCNS(=O)(=O)c1ccc2nc(O)ccc2c1 (stereo not shown)	-5.23
N#C/C(=C\c1ccccc1F)c1nc(-c2ccc(Br)cc2)cs1	-3.04
COC(=O)C1=C(C)N=C2SCCC(=O)N2C1c1ccc(OCCC(C)C)cc1 (stereo not shown)	-1.18
CCc1ccc(OCCCSc2nc(-c3ccccc3)nc3cc(=O)[nH]n23)cc1	2.31
Cc1ccc2nsnc2c1/N=C/c1c(O)nc(O)c(C#N)c1C	0.687
CC(Oc1ccc(Cl)cc1Cl)C(=O)Nc1ccc(S(=O)(=O)Nc2ncccn2)cc1 (stereo not shown)	-9.11
O=C(N/C(=C\c1ccccc1F)C(=O)N1CC2CC(C1)c1cccc(=O)n1C2)C1CCCCC1 (stereo not shown)	-3.18
COc1ccc(CCNCc2c(F)cccc2Cl)cc1OC	-9.37
O=C(Cn1ccc2cc(S(=O)(=O)N3CCCC3)ccc21)NC1CC1	4.78
CC(C)(C)NC(=O)c1ccc2snnc2c1	-1.74
O=C(NCCCN1CCOCC1)C1(c2ccccc2)CCCC1	-3.72
Cc1cccc(C(=N)NOC(=O)c2cccc(Br)c2)c1	-4.93
O=C(O)CCCC(=O)Nc1nc(-c2cccc3ccccc23)cs1	-5.63
O=C(COc1ccc(Cl)cc1)n1nc(-c2cccnc2)nc1NCc1cccs1	-4.75
CSc1nc(=O)c2c(n1C)NC(=O)CC2c1ccc(OC(C)C)cc1 (stereo not shown)	-4.71
O=C(NC1CCCCC1)c1ccc2c(c1)OCO2	-2.54
COc1ccc(-c2noc(N3CCC(Cc4ccccc4)CC3)n2)cc1OC	-2.46
COc1ccc(OC)c(C2NC(=O)NC(C)=C2C(=O)Nc2ccc(C)cc2)c1 (stereo not shown)	-11

SMILES	% Inhibition @ 10 uM [%]
CCCCOc1ccc(C2=N/C(=C\c3ccccc3OC)C(=O)O2)cc1	-2.64
CCCOc1ccc(N2CC(C(=O)NC3=NCCS3)CC2=O)cc1 (stereo not shown)	0.583
COc1ccc2c(c1OC)C(=O)N(c1ccc3c(c1)CCC3)C2=O	-3.76
COc1cc(SC#N)ccc1/N=C/c1c(C)nn(-c2ccccc2)c1O	-6.7
Cc1nn(CC(=O)NCCCN(C)C2CCCCC2)c(=O)c2cccn12	-7.52
Cc1cccn2cc(-c3ccc(NC(=O)C(C)C)cc3)nc12	-6.29
CC1CCN(S(=O)(=O)c2ccc(Cl)cc2Br)CC1	2.78
CC(=O)NCc1nc2ccccc2n1Cc1ccccc1	8.7
C=CCn1c(=O)sc2cc([N+](=O)[O-])ccc21	2.91
COc1ccc(S(=O)(=O)Nc2ccc(NC(C)=O)cc2)c(Cl)c1Cl	-4.49
O=C(N/C(=C\c1cccnc1)C(=O)N1CCCCC1)c1cccc(Br)c1	-2.07
Cc1cccc2sc(NC(=O)/C=C/C(=O)O)nc12	-0.053
Cc1ccc(C(=O)C2=C(O)C(=O)N(CC3CCCO3)C2c2cccc(Oc3ccccc3)c2)o1 (stereo not shown)	-2.73
CCN(CC)C(=O)C1CCCN(Cc2ccc(Cl)c(Cl)c2)C1 (stereo not shown)	1.48
N#CC1=C(N)Oc2ccc3ccccc3c2C1c1ccccc1 (stereo not shown)	-0.294
NC(=O)C1(N2CCCCC2)CCN(C(=O)NCc2ccccc2)CC1	9.58
Cc1ccc(-c2nnc3sc(COc4ccccc4C)nn23)cc1	-4.02
Cc1cc(NS(=O)(=O)c2ccc(NC(=O)COc3ccccc3Cl)cc2)no1	-3.78
Cc1ccc2nc(NCc3ccccc3Cl)c3nncn3c2c1	-2.42
O=C(NC1CCN(Cc2ccccc2)CC1)C1=Cc2sc3c(c2CS1)CCCC3	22.2
CCOC(=O)c1c(-c2ccsc2)csc1N	1.72
CC(=O)C1=C(C)NC(=O)NC1c1ccc(C)cc1 (stereo not shown)	1.54
Cc1nc2c(C(=O)NCc3ccccc3Cl)cnn2c(O)c1Cl	1.27
CCOC(=O)c1c(C)c(C(=O)NC(C)COC)c(C)n1C (stereo not shown)	1.72
COc1ccc(CC(=O)Nc2ccc3ccccc3c2)cc1	-2.78
